Here are results for 2 molecules from patent publication US20030044768A1 (Dana-Farber, published 2003).

Sequences and labels used below:
B2: murine B7-4 expressed on transfected cells (ligand)
chain: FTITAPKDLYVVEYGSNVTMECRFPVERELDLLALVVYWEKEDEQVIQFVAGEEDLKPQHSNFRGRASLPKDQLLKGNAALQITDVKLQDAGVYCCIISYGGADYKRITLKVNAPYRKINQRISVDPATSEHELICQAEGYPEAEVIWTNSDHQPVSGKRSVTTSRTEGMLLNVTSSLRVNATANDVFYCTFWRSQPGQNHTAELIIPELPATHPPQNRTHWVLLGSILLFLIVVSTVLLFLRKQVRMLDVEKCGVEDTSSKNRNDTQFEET
notes: also called mouse B7-4; mB7-4

The target in assay [1] is T1, soluble form of human B7-1 (human, UniProt P33681 35-242, limits assumed).
T1 construct: also called soluble B7-1
T1 sequence (looked up): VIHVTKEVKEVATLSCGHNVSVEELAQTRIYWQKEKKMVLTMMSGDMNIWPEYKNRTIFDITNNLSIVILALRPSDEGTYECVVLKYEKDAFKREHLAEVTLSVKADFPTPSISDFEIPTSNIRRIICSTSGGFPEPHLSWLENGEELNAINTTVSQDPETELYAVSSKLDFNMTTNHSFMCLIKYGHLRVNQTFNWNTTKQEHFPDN
The experiment in a line: BIACORE, human PD-1.Ig immobilized.

In assay [2] the target is T2, soluble form of human B7-2 (human, UniProt P42081 24-247, limits assumed).
T2 construct: also called soluble B7-2
T2 sequence (looked up): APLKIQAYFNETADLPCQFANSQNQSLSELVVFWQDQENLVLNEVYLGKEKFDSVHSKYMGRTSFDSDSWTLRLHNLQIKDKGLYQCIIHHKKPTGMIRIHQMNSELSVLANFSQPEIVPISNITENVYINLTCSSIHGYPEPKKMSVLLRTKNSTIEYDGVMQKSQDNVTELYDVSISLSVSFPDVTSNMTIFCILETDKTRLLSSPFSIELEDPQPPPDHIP
The experiment in a line: BIACORE, human PD-1.Ig immobilized. On the technique in general: SPR reads the build-up and loss of mass on a sensor chip optically.

Assay [3] addresses T3, human B7-4M expressed on transfected COS or CHO cells (human, UniProt Q9NZQ7).
T3 construct: Full-length B7-4M cDNA expressed on COS or CHO cells; also called PD-L1
The experiment in a line: flow cytometry on CHO cells expressing human B7-4. On the technique in general: Flow cytometry measures light scatter and fluorescence of single cells or particles in a stream.

Assay [4] deals with B2. The experiment in a line: flow cytometry on CHO cells expressing murine B7-4.
The target in assay [5] is T4, human CTLA4-Fc (human Ig gamma 1) (human, UniProt P16410 37-161; P01857 part only = IgG part).
T4 construct: also called CTLA4-Ig; hCTLA4
Kind of assay: flow cytometry on CHO cells expressing murine B7-4.

T3 sequence (Q9NZQ7 19-290): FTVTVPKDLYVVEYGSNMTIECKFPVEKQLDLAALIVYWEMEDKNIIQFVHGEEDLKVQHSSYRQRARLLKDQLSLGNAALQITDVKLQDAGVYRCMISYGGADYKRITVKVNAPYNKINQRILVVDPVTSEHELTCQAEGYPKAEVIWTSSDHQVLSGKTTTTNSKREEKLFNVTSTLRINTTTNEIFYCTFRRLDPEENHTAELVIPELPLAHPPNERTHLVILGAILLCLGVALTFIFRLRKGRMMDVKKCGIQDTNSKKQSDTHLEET

B1: human PD-1.Ig (Ig portion not stated in the experiment) (Fc fusion)
chain: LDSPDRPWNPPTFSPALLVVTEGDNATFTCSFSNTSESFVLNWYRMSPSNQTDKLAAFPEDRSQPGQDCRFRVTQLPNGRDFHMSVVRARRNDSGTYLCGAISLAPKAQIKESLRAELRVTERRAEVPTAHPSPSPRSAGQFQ
notes: Probably the same as m1 or m2; also called hPD-1.Fc; PD-1.Fc; not shown: Ig/Fc portion
Regarding B1, the binding result in assay [1] is reported as “no binding”; in assay [2], “no binding”; in assay [3] it was “binds”; in assay [4], “binds”.

As to B2, in assay [5], the binding result is reported as “no binding”.
